{"source": "the supplement of paper PMC11417369", "note": "± gives the standard deviation of the averaged measurements. The list shows a part of the results.", "data": [{"system": "PfAP2-EXP AP2 domain (GST-tagged)", "assay": "gcPBM binding intensity (ln(normalized median fluorescence intensity)); higher = stronger DNA binding", "summary_of_the_method": "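The highest Masliner-normalised natural-log median intensity across replicate spots of either probe orientation is reported as binding intensity. GST-tagged P. falciparum DNA-binding domains expressed in E. coli were applied for 1 h to an Agilent 4 × 180k array of primer-extended double-stranded 36-bp intergenic genomic probes plus negative controls, and bound protein was detected with Alexa488 anti-GST antibody and scanned at 488 nm.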", "values": [{"sequence": "TGTATACATTCTGAATGTACGGAACACCTCATAACT [XGTACX_site7240]", "gcPBM binding intensity (ln)": "8.64 ± 0.38"}, {"sequence": "TGGAACCTTTAAAATACACACCCAAATCCTTTGAAA [CACACA_site7671]", "gcPBM binding intensity (ln)": "8.38 ± 0.52"}, {"sequence": "ATTATTTGAAACTATTGTACATTTAAAAACATTTTT [XGTACX_site4896]", "gcPBM binding intensity (ln)": "8.47 ± 0.35"}, {"sequence": "AAAAAAAAAAAAAACACACACATATAAATATAAATA [CACACA_site6972]", "gcPBM binding intensity (ln)": "8.38 ± 0.53"}, {"sequence": "ATTGGACTATAAATAGGTACACATATATATATATAT [XGTACX_site7562]", "gcPBM binding intensity (ln)": "10.4 ± 0.33"}, {"sequence": "TCATATATTCAAAAATTTAAAGTTAATAAAACTTGA [CACACA_negctrl_site1546]", "gcPBM binding intensity (ln)": "7.96 ± 0.42"}, {"sequence": "TAAATACTTGTATATAGTACAAGTTGTTTTTTTTAA [XGTACX_site5643]", "gcPBM binding intensity (ln)": "7.96 ± 0.38"}, {"sequence": "CATATATATTTTATTTGTACGTATAAAAAAACAAAA [XGTACX_site4253]", "gcPBM binding intensity (ln)": "8.8 ± 0.25"}, {"sequence": "ATATGAAAAAGAACTTGTACTAAAGTGGCATATTAT [XGTACX_site8520]", "gcPBM binding intensity (ln)": "8.9 ± 0.39"}, {"sequence": "TTAACAAATAAACACACACACACACCCAAAAAAAAA [CACACA_site8068]", "gcPBM binding intensity (ln)": "8.63 ± 0.45"}, {"sequence": "ATAAAAAAAAAAACAGTAAAATTATAATTATAATTA [TGCATGCA_negctrl_site356]", "gcPBM binding intensity (ln)": "8.47 ± 0.37"}, {"sequence": "TATATCCCTTAGAATACACACCCATATGAGTGTGAA [CACACA_site8965]", "gcPBM binding intensity (ln)": "8.21 ± 0.45"}, {"sequence": "TAATGATAAATACATACACACAAAAAATGATATATA [CACACA_site7258]", "gcPBM binding intensity (ln)": "8.6 ± 0.32"}, {"sequence": "AATGTAAAATCTTCATATACATTTAAGTCTGTATTT [TGCATGCA_negctrl_site183]", "gcPBM binding intensity (ln)": "8.04 ± 0.16"}, {"sequence": "ACAAAAATTAAATAAAGTACATTTTTAAAATACGTA [XGTACX_site3880]", "gcPBM binding intensity (ln)": "8.51 ± 0.36"}, {"sequence": "AAAAGCACAAAAAATACACACACAAAAAATAAAAAA [CACACA_site8545]", "gcPBM binding intensity (ln)": "8.5 ± 0.57"}, {"sequence": "TTATAAAAATTTAGTTGTACATGTCAAATTATCAAT [XGTACX_site7229]", "gcPBM binding intensity (ln)": "8.51 ± 0.44"}, {"sequence": "TAAGACAATAAATGCTGTACAATTGAATATCTTGGA [XGTACX_site636]", "gcPBM binding intensity (ln)": "8.62 ± 0.33"}, {"sequence": "TATTTTATTATTATTATTTCTTTATAGTGTATTCTA [CACACA_negctrl_site517]", "gcPBM binding intensity (ln)": "8.43 ± 0.62"}, {"sequence": "GGATAGGCATAACATAGTACGTACAAATATATATAT [XGTACX_site454]", "gcPBM binding intensity (ln)": "9.51 ± 0.085"}, {"sequence": "TATTTTATTATTATTATTAGTATGATTTCTTTATAG [CACACA_negctrl_site550]", "gcPBM binding intensity (ln)": "8.27 ± 0.47"}, {"sequence": "TTTTCGTAACTGATTCAACACACAAAAGGGGGAAAA [CACACA_site8517]", "gcPBM binding intensity (ln)": "9.06 ± 0.2"}, {"sequence": "AATATATAGCTAAAAACACACAAATATATACACATA [CACACA_site9203]", "gcPBM binding intensity (ln)": "8.63 ± 0.45"}, {"sequence": "TTTTTTGTACCAAAAAAAAAAAAAAGAAAAAAAAAC [CACACA_negctrl_site1416]", "gcPBM binding intensity (ln)": "8.35 ± 0.39"}, {"sequence": "TATAAAATAAATTGTGCACACATATTTATAAATATG [CACACA_site2330]", "gcPBM binding intensity (ln)": "8.8 ± 0.18"}, {"sequence": "TATATGGAAAATTAAAGTACTAAAGAATAAATAGAA [XGTACX_site8796]", "gcPBM binding intensity (ln)": "8.85 ± 0.45"}, {"sequence": "TATAGATACATATACACACACACACCGACATATATA [CACACA_site9138]", "gcPBM binding intensity (ln)": "8.69 ± 0.43"}, {"sequence": "AATAATAGAAGCACCCACCCACCACCACCCACACAT [CACACA_negctrl_site1033]", "gcPBM binding intensity (ln)": "9.71 ± 0.41"}, {"sequence": "GAGAAACTTGTTTAAACATGCACAAAAAAAAAAAAA [TGCATGCA_site340]", "gcPBM binding intensity (ln)": "8.82 ± 0.47"}, {"sequence": "ACGATGAATATGTAAAGTACGCAAATGTAACAATAT [XGTACX_site728]", "gcPBM binding intensity (ln)": "9.03 ± 0.38"}, {"sequence": "AAATAAAAAAAGGGAACATGCAATATGTACAAATAT [TGCATGCA_site869]", "gcPBM binding intensity (ln)": "9.34 ± 0.52"}, {"sequence": "TCATAGGTTCAAAAGGGTACATTAATACATACATAT [XGTACX_site2236]", "gcPBM binding intensity (ln)": "8.57 ± 0.47"}, {"sequence": "GTAGTTACATATAGGGTGCTCCAATAGTTGACCTCG", "gcPBM binding intensity (ln)": "8.44 ± 0.29"}, {"sequence": "TCTTTTTTCTTTTTTTCACACATTATTTTTTAAATA [CACACA_site5197]", "gcPBM binding intensity (ln)": "8.75 ± 0.41"}, {"sequence": "AGCATTTTTCATTTTGCACACATGTTTTATGGGTAT [CACACA_site5839]", "gcPBM binding intensity (ln)": "8.9 ± 0.36"}, {"sequence": "CATATATATTGATATGCACACCTATGTATTGATGTA [CACACA_site8269]", "gcPBM binding intensity (ln)": "8.54 ± 0.33"}, {"sequence": "AGCTGAAAAAAAAGCTTGCACACGTATTTGCTTTAT [CACACA_site1512]", "gcPBM binding intensity (ln)": "8.55 ± 0.59"}, {"sequence": "GTTTTTTATATAAGGTGGTCAACATTGTAATGTTAA [XGTACX_site3204]", "gcPBM binding intensity (ln)": "8.68 ± 0.28"}, {"sequence": "AATATGTAGTAATCAAGTACTAATGTCTTAATTCGG [XGTACX_site308]", "gcPBM binding intensity (ln)": "8.56 ± 0.32"}, {"sequence": "TTTTTTTGTTATATCCTGCACTTCTTAACTATATTA [GTGCAC_site9807]", "gcPBM binding intensity (ln)": "9.05 ± 0.39"}, {"sequence": "AATAATAAGAATAACGCATGCACATATAATATAGAA [TGCATGCA_site3]", "gcPBM binding intensity (ln)": "9.54 ± 0.2"}, {"sequence": "CATATTATATTCTGCTTACACACATATATATATATA [CACACA_site3059]", "gcPBM binding intensity (ln)": "10.1 ± 0.42"}, {"sequence": "AAATTACACATCCATACACACATATTTTTTTTAATT [CACACA_site5242]", "gcPBM binding intensity (ln)": "8.65 ± 0.47"}]}]}
